Data reported in the RNAGym collection of RNA variant scans (doi:10.7554/elife.90254).
The source gives no read counts; variants with many changes may rest on few reads.

B1: LINE1-mini (parent)
chain: GGCAGAGCUCAACACAGCGUGGCAAAGUGGCUGUGGCUAGACUGCC

Variants of: B1
Experiment: self-cleavage, relative activity (ratio to wild type); higher = more cleavage; in vitro, sequencing; the parent is a self-cleaving ribozyme
C3A G19A G40C gave a self-cleavage of 0.11. In the case of G7C C10G G40C G44C, the self-cleavage is reported as 0.01. Work on G19U A26G G36A G40A yielded a self-cleavage of 0.05. For U9C G27A U38G G40C C45G, the self-cleavage was 0. Variant A6U U9A A14C C15U A26U G40A has a self-cleavage of 0.12. Work on C3G C18U C37A U43C yielded a self-cleavage of 0.25. With C3U G27C C37A the self-cleavage was 0.07. For A6C C13U A16C A25U A26U A39G U43A, the self-cleavage was 0.01. Work on C10G G40A C42U yielded a self-cleavage of 0.01. Work on G5A G22A C31A U38A yielded a self-cleavage of 0.03. For A11G A16C G40U, the self-cleavage was 0.01. Work on G5U C15G G17A G22C A41U C42U yielded a self-cleavage of 0.03. With G19U A39U A41U the self-cleavage was 0.38. Variant A12C C15A U38C has a self-cleavage of 0.01. In the case of C15G A24C G29C G33U G44U, the self-cleavage is reported as 0. With G21U G22A C23A C42A G44C the self-cleavage was 0.08. Work on C13U G27U C31A U43A yielded a self-cleavage of 0.08. Work on U20A G22A U32G yielded a self-cleavage of 0.06. In the case of U9C G27C G40A, the self-cleavage is reported as 0.01. Work on A4G C10G G22U A39G G40U yielded a self-cleavage of 0. G5C A26C U28C C31A showed a self-cleavage of 0.01. Work on A16U U34G A39C yielded a self-cleavage of 0.02. C10U G30A G33A showed a self-cleavage of 0.02. In the case of A16C G22A G27C U28A G33U A41G, the self-cleavage is reported as 0.01. With U9G A11U C31A the self-cleavage was 0.03. Work on A4G C23A A26G yielded a self-cleavage of 0.21. Variant A14G C23A A25C G30C U32A C45A has a self-cleavage of 0.02. A12C C31A U38C G40U gave a self-cleavage of 0.02. G1C A6U U9A A24G G27C C42A gave a self-cleavage of 0.01. In the case of G5C C10G A39C, the self-cleavage is reported as 0.02. Work on C3U C15A G35U yielded a self-cleavage of 0.02. With G2U C3A A4G C15A the self-cleavage was 0. For U9A C13U U32G G33A A39G U43A, the self-cleavage was 0.05. C15U C31A G40U C42U G44U showed a self-cleavage of 0.01. G30A U34A G36A showed a self-cleavage of 0.08. G2A U20A G22C G27C G33A gave a self-cleavage of 0.15. In the case of C13G G19U G44C, the self-cleavage is reported as 0.23. In the case of G1C G17A G30U G36A U38A C45A, the self-cleavage is reported as 0.05. For A6U A11U G22A A24G A25C, the self-cleavage was 0.21. G17A C18U U38G showed a self-cleavage of 0.02. G2A G19A C37U U38A showed a self-cleavage of 0.05. With C18G G35A G40A the self-cleavage was 0.01. For C8A G35U G40C C45G, the self-cleavage was 0.06. Work on C3U U9C C13G G17A C42A yielded a self-cleavage of 0.03. Variant C10A C31A U32G has a self-cleavage of 0.17. With A12U C13G G22A the self-cleavage was 0.19. C3U G7A C10U showed a self-cleavage of 0.44. C3U U9A C10A U20C G21C gave a self-cleavage of 0.02. In the case of C15U A25U U32G G44C, the self-cleavage is reported as 0. A6G U38A G40C C46G showed a self-cleavage of 0.02. Variant C8A A14U G33A A39G G40A C45G has a self-cleavage of 0.1. In the case of C3U C15U U20G A41U C45G, the self-cleavage is reported as 0.16. A24G G36C C42A gave a self-cleavage of 0.06. In the case of C10G A16U A24U G33C, the self-cleavage is reported as 0. G7A C18U G33U C42U G44A C46G showed a self-cleavage of 0.04. C3A C8A G33U G40C gave a self-cleavage of 0.43. Variant C8G G27C C42G has a self-cleavage of 0.04. With G1U G33U U38C A41C U43A the self-cleavage was 0.02. In the case of A12C G19C G21C G35A, the self-cleavage is reported as 0.1. For G2C C8U G17A, the self-cleavage was 0.11. G19C C23U A25G G40C showed a self-cleavage of 0.1. Variant A11G G17A U38A has a self-cleavage of 0.03. With G2U G5C A12G A24G the self-cleavage was 0.02. In the case of A4C U28G C31G G36C, the self-cleavage is reported as 0.06. Work on G2C G7A C8A G17A C37A A39G yielded a self-cleavage of 0.08. For A12C G21A G22C A24C C37G, the self-cleavage was 0. Variant G2A G21U G22C G35U A41U has a self-cleavage of 0.09. Variant G22A A24C C46G has a self-cleavage of 0.17. For C8U C18A G21U A24G G29U, the self-cleavage was 0.03. G2C C31G C42A gave a self-cleavage of 0.01. Work on A6U U9C C23A yielded a self-cleavage of 0.07. A4G G7U G19C showed a self-cleavage of 0.03. G7A C10A C15G G19C A25G gave a self-cleavage of 0.02. For A16U U28G C45A, the self-cleavage was 0.02. For C8G C13G G36A, the self-cleavage was 0.04. Work on G2U G21U U32G yielded a self-cleavage of 0.05. Work on G22C U38A A39G yielded a self-cleavage of 0.12. For A25C C31A C46U, the self-cleavage was 0.13. A6G C13U C45A showed a self-cleavage of 0.12. A12G C13A U28G U43A showed a self-cleavage of 0. Work on A16G C31U A39C C46A yielded a self-cleavage of 0. Work on U28G U38G G40C yielded a self-cleavage of 0.02. C10A G17U C31G A41U showed a self-cleavage of 0.03. Variant G2C C10G G17A U20C U32C A39G has a self-cleavage of 0. Variant C3G G5C A25U G30U A39U G40U has a self-cleavage of 0.17. Variant G5A G21A U32G G36A has a self-cleavage of 0.03. Variant G1U C31A G36C has a self-cleavage of 0.03. With A12U G36U U38A the self-cleavage was 0.03. A24U G27U G30C gave a self-cleavage of 1.72. For C8A G17U G21U C31G, the self-cleavage was 0.06. A12C G21A U43G showed a self-cleavage of 0. In the case of G19A U20A G21C C31U, the self-cleavage is reported as 0.14. G2A G22C C42U showed a self-cleavage of 0.45. In the case of A11G U20A G30A G35A C42U, the self-cleavage is reported as 0.01. Variant C3G C10G G22U G44A C46A has a self-cleavage of 0.02. In the case of C13G A14C C46U, the self-cleavage is reported as 0.03. In the case of G1A G5A A11C G19A G30U A41U, the self-cleavage is reported as 0.05. G19A U20C C31U C46A showed a self-cleavage of 0.17. G2A A14G C15G C23U A25C gave a self-cleavage of 0.02. Work on C3A A4C G27C U32G G44C yielded a self-cleavage of 0.32. For G1U C10U A11C G22A C31G, the self-cleavage was 0.01. For A6U C37U G44U C45A, the self-cleavage was 0.13. In the case of C8G U28G C42U, the self-cleavage is reported as 0.02. C3A G5A A25C showed a self-cleavage of 0.63. Work on A25G A26C G44U C45A yielded a self-cleavage of 0.13. Work on A6U U20G G30A A39C yielded a self-cleavage of 0.29. Work on A4U G5C G27C yielded a self-cleavage of 0.04. Work on C8U G27U U38C C42U yielded a self-cleavage of 0.19. In the case of G19U C23G A24U G30A A41C U43A C45G, the self-cleavage is reported as 0.03. A14C C15U C18G G22U gave a self-cleavage of 0.04. C3G C15A G19A C31G G35A C45U gave a self-cleavage of 0.09. For C8U G35A A39C, the self-cleavage was 0.12. With C23U A25U U34A the self-cleavage was 0.05. Variant G1C G5C C18U G19A C45G has a self-cleavage of 0.01. Work on C3A A4G A16C yielded a self-cleavage of 0. Work on A14G A16G G19A yielded a self-cleavage of 0.46. A12U C18A G19C G33C G40C G44U gave a self-cleavage of 0.02. G7U G35A U38C A41G C42U U43C gave a self-cleavage of 0.01. C13A C18G C46G gave a self-cleavage of 0.05. Work on U20C U28G G29U yielded a self-cleavage of 0.17. Work on C3A G5C A6G G33C C37G yielded a self-cleavage of 0.37. With A11G G17A U20A G33U C45G the self-cleavage was 0.01. With A12U C13G C46U the self-cleavage was 0.18. G7A G19C U20C A25C C42U showed a self-cleavage of 0.04. Work on G7C U9G U20C U34C yielded a self-cleavage of 0.17. With C15G G22A A26U C31U the self-cleavage was 0.02. For G2U A39C G40U, the self-cleavage was 0. C18U G30U G35A showed a self-cleavage of 0.05. Work on C13U C15A G19A G22U G36A yielded a self-cleavage of 0.07. C8G A11C G40A showed a self-cleavage of 0.01. Variant A6U G27C G30U C42U has a self-cleavage of 0.19. In the case of C10U A26C G33A G40U, the self-cleavage is reported as 0.01. A12G A14G A41U gave a self-cleavage of 0.04. Work on A4G A14G G29U A41G yielded a self-cleavage of 0.06. C10A C13A C46A gave a self-cleavage of 0.04. In the case of A6U A25G A39U, the self-cleavage is reported as 0.5. With G5C C13A G27A A39C the self-cleavage was 0.02. G5U G7C U9A C15G A16C G33C U38A showed a self-cleavage of 0.07. For C3U A4U G7A G40A, the self-cleavage was 0.07. Variant A6U G21A G33A has a self-cleavage of 0.05. G17C U28G C31U gave a self-cleavage of 0. C3A C18A U20C G21U A39C showed a self-cleavage of 0.08. For C10A G17U G27U U34A C37G, the self-cleavage was 0.02. For G1A G7C U9A A41G C46A, the self-cleavage was 0.03. With G21U G22U G30U the self-cleavage was 1.85. In the case of G2C G5C A41G, the self-cleavage is reported as 0.01. Variant C37U A39U G40A has a self-cleavage of 0.62. Variant G7A A16C G17C has a self-cleavage of 0.04. G5C A25C G35C gave a self-cleavage of 0.03. Variant G7U C10A A11G G17C A24G has a self-cleavage of 0.01. With U9A U20G A41U the self-cleavage was 0.14. G17U G35A C45U showed a self-cleavage of 0.01. With C13G G22A C42G G44U the self-cleavage was 0.11. In the case of C15U G17A G27A U32G U38C, the self-cleavage is reported as 0.05. For U20A G22C C23G G40C, the self-cleavage was 0.1. Variant C13A G33C C46U has a self-cleavage of 0.04. G21A A39G A41U G44U gave a self-cleavage of 0.07. Variant G7A C18A G21U has a self-cleavage of 0.49. Work on G21C C23G C42A yielded a self-cleavage of 0.12. With C3A C8A A25U U43C the self-cleavage was 0.95. U20C G21U C46G showed a self-cleavage of 0.55. In the case of G1A C18U G21U C31U U32A, the self-cleavage is reported as 0.06. A16G G17C C18A A41C showed a self-cleavage of 0.02. Work on C18U C23G G29U U38C yielded a self-cleavage of 0.38. G21U C23U A25U C45U gave a self-cleavage of 2.14. Work on G2U U20A G36A C37U yielded a self-cleavage of 0.02. For G2U A4U G21A, the self-cleavage was 0.08.
